Our source for the EC50 values is patent US20120077731A1 (Ablynx, published 2012).

This assay has as its target T1, Cyno plasma sIL-6R (cynomolgus monkey, UniProt A0A2K5WN54 60-396).
T1 construct: also called cynomolgus sIL-6R
T1 sequence: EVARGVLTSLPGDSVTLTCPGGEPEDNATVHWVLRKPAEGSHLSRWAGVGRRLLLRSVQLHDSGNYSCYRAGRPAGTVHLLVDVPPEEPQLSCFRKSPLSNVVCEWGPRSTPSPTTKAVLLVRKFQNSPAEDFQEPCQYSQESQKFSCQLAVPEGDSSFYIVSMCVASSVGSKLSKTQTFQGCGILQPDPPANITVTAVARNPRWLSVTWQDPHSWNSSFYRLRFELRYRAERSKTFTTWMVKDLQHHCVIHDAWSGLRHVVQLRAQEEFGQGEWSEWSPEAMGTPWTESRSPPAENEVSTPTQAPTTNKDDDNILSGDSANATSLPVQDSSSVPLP
The experiment in a line: plasma potency ELISA, titration of human IL-6 in cyno plasma. (In general: An ELISA detects its analyte on a solid surface through an enzyme-linked reagent.)

B1: Human IL-6 (ligand)
chain: not shown
notes: also called hIL-6; bio-IL-6
For the molecule B1, a half-maximal response (EC50) required 0.0501 µg/mL.

Broadly, the EC50 is the concentration at which the effect is half-maximal. Lower therefore signals higher potency in that assay.
